The other results are listed elsewhere or left out. Rule as the data show it: active = 3.2 or more and inactive = the rest. Only a few entries rise above the background.
What follows are binders tested against SHP2 C-SH2 domain E139D (assay: enrichment score (SH2-bound / input frequency) (ratio); bacterial display of known human phosphotyrosine sites (pTyr-Var adds point mutants) read by sequencing; higher = stronger binding; tyrosines were phosphorylated by kinases first). Conditions: peptide library: pTyr-Var.
With KITVIYDGACQ [VWDE_Y1035] the enrichment score was inactive: 0.783. In the case of VREIRCQGGNR [VWF_Y1570_Y1570C], the enrichment score is reported as inactive: 0.564. With LREIRYQGGNR [VWF_Y1570_V1565L] the enrichment score was inactive: 0.575. For AEFGLYGAMVR [VSX2_Y222_YF], the enrichment score was inactive: 0.809. With LEFGDYHPLKP [VPS35L_Y32] the enrichment score was inactive: 0.678. VKPENYRRQDI [VHL_Y175_L178Q] was tested, and the enrichment score was inactive: 0.668. AEYGLYGAMVR [VSX2_Y222] was tested, and the enrichment score was inactive: 0.672. With GLALRCLSDHS [VWF_Y1584_Y1584C] the enrichment score was inactive: 0.62. For WFPSTYVEEDE [VAV3_Y842], the enrichment score was inactive: 1.37. For CEQELYSQLVF [WAS_Y102_W97C_YF], the enrichment score was inactive: 0.729. With HNELYYEEAEH [VANGL1_Y345] the enrichment score was inactive: 0.515. With GRIHSYRGHLW [VHL_Y112_R107G] the enrichment score was active: 4.94. With NDENIYKGLPD [VAV3_Y141_D139N] the enrichment score was inactive: 0.931. In the case of WEQELYSQLVF [WAS_Y102_YF], the enrichment score is reported as inactive: 0.801. In the case of VKPENYRRPDI [VHL_Y175_L178P], the enrichment score is reported as inactive: 0.674. With VREIRYQGGNR [VWF_Y1570] the enrichment score was inactive: 0.36. In the case of RRIYSYRGHLW [VHL_Y112_H110Y], the enrichment score is reported as inactive: 0.269. GKPENYRRLDI [VHL_Y175_V170G] was tested, and the enrichment score was inactive: 0.643. IGMLIYFARKA [VCAM1_Y718_I716L] was tested, and the enrichment score was inactive: 1.04.

These binders were tested against SHP2 C-SH2 domain wild-type in the same assay as above. Conditions: peptide library: pTyr-Var.
With KITVIYDGACQ [VWDE_Y1035] the enrichment score was inactive: 0.782. VREIRCQGGNR [VWF_Y1570_Y1570C] was tested, and the enrichment score was inactive: 0.366. In the case of LREIRYQGGNR [VWF_Y1570_V1565L], the enrichment score is reported as inactive: 0.35. In the case of AEFGLYGAMVR [VSX2_Y222_YF], the enrichment score is reported as inactive: 0.708. In the case of LEFGDYHPLKP [VPS35L_Y32], the enrichment score is reported as inactive: 0.644. With VKPENYRRQDI [VHL_Y175_L178Q] the enrichment score was inactive: 0.716. AEYGLYGAMVR [VSX2_Y222] was tested, and the enrichment score was inactive: 0.799. For GLALRCLSDHS [VWF_Y1584_Y1584C], the enrichment score was inactive: 0.967. WFPSTYVEEDE [VAV3_Y842] was tested, and the enrichment score was inactive: 1.02. With CEQELYSQLVF [WAS_Y102_W97C_YF] the enrichment score was inactive: 0.698. With HNELYYEEAEH [VANGL1_Y345] the enrichment score was inactive: 0.616. In the case of GRIHSYRGHLW [VHL_Y112_R107G], the enrichment score is reported as active: 3.6. NDENIYKGLPD [VAV3_Y141_D139N] was tested, and the enrichment score was inactive: 0.652. With WEQELYSQLVF [WAS_Y102_YF] the enrichment score was inactive: 0.922. In the case of VKPENYRRPDI [VHL_Y175_L178P], the enrichment score is reported as inactive: 0.889. For VREIRYQGGNR [VWF_Y1570], the enrichment score was inactive: 0.362. For RRIYSYRGHLW [VHL_Y112_H110Y], the enrichment score was inactive: 0.222. For GKPENYRRLDI [VHL_Y175_V170G], the enrichment score was inactive: 0.711. In the case of IGMLIYFARKA [VCAM1_Y718_I716L], the enrichment score is reported as inactive: 0.928.

What follows are binders tested against SHP2 N-SH2 domain L43F in the same assay as above. Conditions: peptide library: pTyr-Var.
In the case of KITVIYDGACQ [VWDE_Y1035], the enrichment score is reported as inactive: 0.578. With VREIRCQGGNR [VWF_Y1570_Y1570C] the enrichment score was inactive: 0.443. With LREIRYQGGNR [VWF_Y1570_V1565L] the enrichment score was inactive: 0.594. In the case of AEFGLYGAMVR [VSX2_Y222_YF], the enrichment score is reported as inactive: 0.728. LEFGDYHPLKP [VPS35L_Y32] was tested, and the enrichment score was inactive: 0.751. VKPENYRRQDI [VHL_Y175_L178Q] was tested, and the enrichment score was inactive: 0.765. In the case of AEYGLYGAMVR [VSX2_Y222], the enrichment score is reported as inactive: 0.661. In the case of GLALRCLSDHS [VWF_Y1584_Y1584C], the enrichment score is reported as inactive: 0.796. For WFPSTYVEEDE [VAV3_Y842], the enrichment score was inactive: 1.11. For CEQELYSQLVF [WAS_Y102_W97C_YF], the enrichment score was inactive: 0.621. HNELYYEEAEH [VANGL1_Y345] was tested, and the enrichment score was inactive: 0.61. GRIHSYRGHLW [VHL_Y112_R107G] was tested, and the enrichment score was active: 3.82. With NDENIYKGLPD [VAV3_Y141_D139N] the enrichment score was inactive: 0.554. WEQELYSQLVF [WAS_Y102_YF] was tested, and the enrichment score was inactive: 0.879. With VKPENYRRPDI [VHL_Y175_L178P] the enrichment score was inactive: 0.744. In the case of VREIRYQGGNR [VWF_Y1570], the enrichment score is reported as inactive: 0.23. With RRIYSYRGHLW [VHL_Y112_H110Y] the enrichment score was inactive: 0.353. GKPENYRRLDI [VHL_Y175_V170G] was tested, and the enrichment score was inactive: 0.636. IGMLIYFARKA [VCAM1_Y718_I716L] was tested, and the enrichment score was inactive: 0.792.

What follows are binders tested against SHP2 N-SH2 domain T42A in the same assay as above. Conditions: peptide library: pTyr-Var.
For KITVIYDGACQ [VWDE_Y1035], the enrichment score was inactive: 0.697. In the case of VREIRCQGGNR [VWF_Y1570_Y1570C], the enrichment score is reported as inactive: 0.406. For LREIRYQGGNR [VWF_Y1570_V1565L], the enrichment score was inactive: 0.308. In the case of AEFGLYGAMVR [VSX2_Y222_YF], the enrichment score is reported as inactive: 0.673. For LEFGDYHPLKP [VPS35L_Y32], the enrichment score was inactive: 0.8. In the case of VKPENYRRQDI [VHL_Y175_L178Q], the enrichment score is reported as inactive: 0.825. With AEYGLYGAMVR [VSX2_Y222] the enrichment score was inactive: 0.547. With GLALRCLSDHS [VWF_Y1584_Y1584C] the enrichment score was inactive: 0.834. For WFPSTYVEEDE [VAV3_Y842], the enrichment score was inactive: 0.764. For CEQELYSQLVF [WAS_Y102_W97C_YF], the enrichment score was inactive: 0.696. In the case of HNELYYEEAEH [VANGL1_Y345], the enrichment score is reported as inactive: 0.48. With GRIHSYRGHLW [VHL_Y112_R107G] the enrichment score was active: 3.48. NDENIYKGLPD [VAV3_Y141_D139N] was tested, and the enrichment score was inactive: 0.507. WEQELYSQLVF [WAS_Y102_YF] was tested, and the enrichment score was inactive: 0.897. VKPENYRRPDI [VHL_Y175_L178P] was tested, and the enrichment score was inactive: 0.649. In the case of VREIRYQGGNR [VWF_Y1570], the enrichment score is reported as inactive: 0.315. RRIYSYRGHLW [VHL_Y112_H110Y] was tested, and the enrichment score was inactive: 0.246. GKPENYRRLDI [VHL_Y175_V170G] was tested, and the enrichment score was inactive: 0.485. In the case of IGMLIYFARKA [VCAM1_Y718_I716L], the enrichment score is reported as inactive: 0.932.

What follows are binders tested against SHP2 N-SH2 domain T52S in the same assay as above. Conditions: peptide library: pTyr-Var.
In the case of KITVIYDGACQ [VWDE_Y1035], the enrichment score is reported as inactive: 0.592. With VREIRCQGGNR [VWF_Y1570_Y1570C] the enrichment score was inactive: 0.453. LREIRYQGGNR [VWF_Y1570_V1565L] was tested, and the enrichment score was inactive: 0.506. With AEFGLYGAMVR [VSX2_Y222_YF] the enrichment score was inactive: 0.605. For LEFGDYHPLKP [VPS35L_Y32], the enrichment score was inactive: 1.77. For VKPENYRRQDI [VHL_Y175_L178Q], the enrichment score was inactive: 0.666. In the case of AEYGLYGAMVR [VSX2_Y222], the enrichment score is reported as inactive: 0.668. GLALRCLSDHS [VWF_Y1584_Y1584C] was tested, and the enrichment score was inactive: 0.665. WFPSTYVEEDE [VAV3_Y842] was tested, and the enrichment score was inactive: 1.53. With CEQELYSQLVF [WAS_Y102_W97C_YF] the enrichment score was inactive: 0.627. In the case of HNELYYEEAEH [VANGL1_Y345], the enrichment score is reported as inactive: 0.588. For GRIHSYRGHLW [VHL_Y112_R107G], the enrichment score was active: 4.33. With NDENIYKGLPD [VAV3_Y141_D139N] the enrichment score was inactive: 0.705. In the case of WEQELYSQLVF [WAS_Y102_YF], the enrichment score is reported as inactive: 0.822. In the case of VKPENYRRPDI [VHL_Y175_L178P], the enrichment score is reported as inactive: 0.799. In the case of VREIRYQGGNR [VWF_Y1570], the enrichment score is reported as inactive: 0.408. With RRIYSYRGHLW [VHL_Y112_H110Y] the enrichment score was inactive: 0.212. With GKPENYRRLDI [VHL_Y175_V170G] the enrichment score was inactive: 0.579. With IGMLIYFARKA [VCAM1_Y718_I716L] the enrichment score was inactive: 1.03.

The binders below were run against SHP2 N-SH2 domain wild-type in the same assay as above. Conditions: peptide library: pTyr-Var.
For KITVIYDGACQ [VWDE_Y1035], the enrichment score was inactive: 0.927. In the case of VREIRCQGGNR [VWF_Y1570_Y1570C], the enrichment score is reported as inactive: 0.395. With LREIRYQGGNR [VWF_Y1570_V1565L] the enrichment score was inactive: 0.668. In the case of AEFGLYGAMVR [VSX2_Y222_YF], the enrichment score is reported as inactive: 0.98. LEFGDYHPLKP [VPS35L_Y32] was tested, and the enrichment score was inactive: 0.7. With VKPENYRRQDI [VHL_Y175_L178Q] the enrichment score was inactive: 0.697. With AEYGLYGAMVR [VSX2_Y222] the enrichment score was inactive: 0.972. GLALRCLSDHS [VWF_Y1584_Y1584C] was tested, and the enrichment score was inactive: 1.02. With WFPSTYVEEDE [VAV3_Y842] the enrichment score was inactive: 1.13. For CEQELYSQLVF [WAS_Y102_W97C_YF], the enrichment score was inactive: 0.768. With HNELYYEEAEH [VANGL1_Y345] the enrichment score was inactive: 0.763. GRIHSYRGHLW [VHL_Y112_R107G] was tested, and the enrichment score was active: 3.86. NDENIYKGLPD [VAV3_Y141_D139N] was tested, and the enrichment score was inactive: 0.688. WEQELYSQLVF [WAS_Y102_YF] was tested, and the enrichment score was inactive: 1.03. For VKPENYRRPDI [VHL_Y175_L178P], the enrichment score was inactive: 0.871. With VREIRYQGGNR [VWF_Y1570] the enrichment score was inactive: 0.372. In the case of RRIYSYRGHLW [VHL_Y112_H110Y], the enrichment score is reported as inactive: 0.231. GKPENYRRLDI [VHL_Y175_V170G] was tested, and the enrichment score was inactive: 0.639. For IGMLIYFARKA [VCAM1_Y718_I716L], the enrichment score was inactive: 0.661.

From the supplement of paper PMC10369915
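Also: displayed peptides selected on beads carrying the immobilized SH2 domain, with library peptides lacking any tyrosine serving as negative controls.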
